This is one part of the list.

In the assay the target is T1, MBP-FoxP1dN (Mus musculus, UniProt P58462 326-579).
T1 sequence: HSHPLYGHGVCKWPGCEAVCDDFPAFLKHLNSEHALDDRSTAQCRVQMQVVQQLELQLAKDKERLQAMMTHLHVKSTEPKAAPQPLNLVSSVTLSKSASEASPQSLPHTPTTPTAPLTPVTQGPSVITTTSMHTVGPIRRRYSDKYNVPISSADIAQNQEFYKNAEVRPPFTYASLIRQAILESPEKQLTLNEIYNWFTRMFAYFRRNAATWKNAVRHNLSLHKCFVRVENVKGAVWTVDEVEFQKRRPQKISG
The assay is described as follows: PD-seq (MBP pull-down with sequencing); 20 mM Tris-HCl pH 7.5, 100 mM NaCl, 1.5 mM MgCl2, 0.4 uM protein, 0.1 uM dsDNA library, 30 min, room temperature, amylose pull-down; high values mean tight binding. The settings on record: protein: recombinant; tags: His6-MBP; chain copies: 2; dsDNA, one strand shown. The gist of the method:
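In Tris pH 7.5 buffer with NaCl and MgCl2, 0.4 µM His6-MBP-tagged mouse FoxP3 or FoxP1 fragment lacking the N-terminus, from E. coli, met 0.1 µM Klenow-filled double-stranded degenerate DNA library for 30 min at room temperature. Three washes on amylose resin followed capture of the complexes, then proteinase K release of DNA, PCR barcoding and Illumina sequencing. Binding is taken as pooled-replicate reads-per-million enrichment of pull-down relative to input.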
With “GATGATTGTTCTCCCAGCTGATGAATTACAAGTCTCGAGTAAACAAATTTTCCTAATCTTTCTGTTCAAGCGCCATCTAC”, the binding signal is 1.2 RPM ratio (pull-down/input).

On to “GATGATTGTTCTCCCAGCTGATGAATTAGGCTACTCGAGTAAACAAATTTTCCTAATCTTTCTGTTCAAGCGCCATCTAC”, for which the binding signal was 0.94 RPM ratio (pull-down/input).

For “GATGATTGTTCTCCCAGCTGATGAATTACGTGCTTCGAGTAAACAAATTTTCCTAATCTTTCTGTTCAAGCGCCATCTAC”, the binding signal was 1.04 RPM ratio (pull-down/input).

Turning to “GATGATTGTTCTCCCAGCTGATGAATTACGTGGGTCGAGTAAACAAATTTTCCTAATCTTTCTGTTCAAGCGCCATCTAC”, the binding signal was 0.946 RPM ratio (pull-down/input).

On to “GATGATTGTTCTCCCAGCTGATGAATTGCTCCACTCGAGTAAACAAATTTTCCTAATCTTTCTGTTCAAGCGCCATCTAC”, for which the binding signal is 0.913 RPM ratio (pull-down/input).

On to “GATGATTGTTCTCCCAGCTGATGAATTGGGAGTCTCGAGTAAACAAATTTTCCTAATCTTTCTGTTCAAGCGCCATCTAC”, for which the binding signal was 0.822 RPM ratio (pull-down/input).

For “GATGATTGTTCTCCCAGCTGATGAATTTTATGAATCGAGTAAACAAATTTTCCTAATCTTTCTGTTCAAGCGCCATCTAC”, the binding signal was 0.942 RPM ratio (pull-down/input).

On to “GATGATTGTTCTCCCAGCTGATGAATTACTACCTTCGAGTAAACAAATTTTCCTAATCTTTCTGTTCAAGCGCCATCTAC”, for which the binding signal was 1.25 RPM ratio (pull-down/input).

On to “GATGATTGTTCTCCCAGCTGATGAATTGTTGAATTCGAGTAAACAAATTTTCCTAATCTTTCTGTTCAAGCGCCATCTAC”, for which the binding signal is 1.15 RPM ratio (pull-down/input).

Regarding “GATGATTGTTCTCCCAGCTGATGAATTGAGACGATCGAGTAAACAAATTTTCCTAATCTTTCTGTTCAAGCGCCATCTAC”, the binding signal was 0.824 RPM ratio (pull-down/input).

Regarding “GATGATTGTTCTCCCAGCTGATGAATTCGCACGGTCGAGTAAACAAATTTTCCTAATCTTTCTGTTCAAGCGCCATCTAC”, the binding signal is 0.815 RPM ratio (pull-down/input).

For the sequence “GATGATTGTTCTCCCAGCTGATGAATTAAAGAGATCGAGTAAACAAATTTTCCTAATCTTTCTGTTCAAGCGCCATCTAC”, the binding signal is 0.909 RPM ratio (pull-down/input).

As for “GATGATTGTTCTCCCAGCTGATGAATTCCCCGATTCGAGTAAACAAATTTTCCTAATCTTTCTGTTCAAGCGCCATCTAC”, the binding signal was 0.83 RPM ratio (pull-down/input).

In the case of “GATGATTGTTCTCCCAGCTGATGAATTCATTTTATCGAGTAAACAAATTTTCCTAATCTTTCTGTTCAAGCGCCATCTAC”, the binding signal is 1.02 RPM ratio (pull-down/input).

In the case of “GATGATTGTTCTCCCAGCTGATGAATTACGCCTATCGAGTAAACAAATTTTCCTAATCTTTCTGTTCAAGCGCCATCTAC”, the binding signal was 1.01 RPM ratio (pull-down/input).

As to “GATGATTGTTCTCCCAGCTGATGAATTATACCTGTCGAGTAAACAAATTTTCCTAATCTTTCTGTTCAAGCGCCATCTAC”, the binding signal was 1.01 RPM ratio (pull-down/input).

Regarding “GATGATTGTTCTCCCAGCTGATGAATTGTCATTATCGAGTAAACAAATTTTCCTAATCTTTCTGTTCAAGCGCCATCTAC”, the binding signal was 1.31 RPM ratio (pull-down/input).

On to “GATGATTGTTCTCCCAGCTGATGAATTTGCAAAGTCGAGTAAACAAATTTTCCTAATCTTTCTGTTCAAGCGCCATCTAC”, for which the binding signal was 0.935 RPM ratio (pull-down/input).

As for “GATGATTGTTCTCCCAGCTGATGAATTCGGTTGGTCGAGTAAACAAATTTTCCTAATCTTTCTGTTCAAGCGCCATCTAC”, the binding signal was 0.834 RPM ratio (pull-down/input).

For “GATGATTGTTCTCCCAGCTGATGAATTGTATGCCTCGAGTAAACAAATTTTCCTAATCTTTCTGTTCAAGCGCCATCTAC”, the binding signal is 1.07 RPM ratio (pull-down/input).

As for “GATGATTGTTCTCCCAGCTGATGAATTCGTAGGTTCGAGTAAACAAATTTTCCTAATCTTTCTGTTCAAGCGCCATCTAC”, the binding signal is 0.854 RPM ratio (pull-down/input).

Regarding “GATGATTGTTCTCCCAGCTGATGAATTTCTTGCGTCGAGTAAACAAATTTTCCTAATCTTTCTGTTCAAGCGCCATCTAC”, the binding signal was 0.964 RPM ratio (pull-down/input).

On to “GATGATTGTTCTCCCAGCTGATGAATTGAGATAATCGAGTAAACAAATTTTCCTAATCTTTCTGTTCAAGCGCCATCTAC”, for which the binding signal was 1.17 RPM ratio (pull-down/input).

With “GATGATTGTTCTCCCAGCTGATGAATTTTCTAGATCGAGTAAACAAATTTTCCTAATCTTTCTGTTCAAGCGCCATCTAC”, the binding signal is 0.921 RPM ratio (pull-down/input).

In the case of “GATGATTGTTCTCCCAGCTGATGAATTCCCGGGGTCGAGTAAACAAATTTTCCTAATCTTTCTGTTCAAGCGCCATCTAC”, the binding signal is 0.742 RPM ratio (pull-down/input).

In the case of “GATGATTGTTCTCCCAGCTGATGAATTGCACTGTTCGAGTAAACAAATTTTCCTAATCTTTCTGTTCAAGCGCCATCTAC”, the binding signal is 1.18 RPM ratio (pull-down/input).

“GATGATTGTTCTCCCAGCTGATGAATTTTTGCGGTCGAGTAAACAAATTTTCCTAATCTTTCTGTTCAAGCGCCATCTAC”: the binding signal was 0.901 RPM ratio (pull-down/input).

Turning to “GATGATTGTTCTCCCAGCTGATGAATTACGACTATCGAGTAAACAAATTTTCCTAATCTTTCTGTTCAAGCGCCATCTAC”, the binding signal was 1.06 RPM ratio (pull-down/input).

Take “GATGATTGTTCTCCCAGCTGATGAATTCAGCTATTCGAGTAAACAAATTTTCCTAATCTTTCTGTTCAAGCGCCATCTAC”: the binding signal is 0.939 RPM ratio (pull-down/input).

Take “GATGATTGTTCTCCCAGCTGATGAATTCCAACAGTCGAGTAAACAAATTTTCCTAATCTTTCTGTTCAAGCGCCATCTAC”: the binding signal is 0.867 RPM ratio (pull-down/input).

On to “GATGATTGTTCTCCCAGCTGATGAATTACGAGACTCGAGTAAACAAATTTTCCTAATCTTTCTGTTCAAGCGCCATCTAC”, for which the binding signal was 0.934 RPM ratio (pull-down/input).

With “GATGATTGTTCTCCCAGCTGATGAATTGGTAAAGTCGAGTAAACAAATTTTCCTAATCTTTCTGTTCAAGCGCCATCTAC”, the binding signal is 1.04 RPM ratio (pull-down/input).

For the origin of these results see PMC12820563, “FoxP3 forms a head-to-head dimer in vivo and stabilizes its multimerization on adjacent microsatellites”.
